Experimental findings from paper PMC3967168 are described below.

Amino acid sequences for entries named in this document (tags omitted).
UniProt O60563: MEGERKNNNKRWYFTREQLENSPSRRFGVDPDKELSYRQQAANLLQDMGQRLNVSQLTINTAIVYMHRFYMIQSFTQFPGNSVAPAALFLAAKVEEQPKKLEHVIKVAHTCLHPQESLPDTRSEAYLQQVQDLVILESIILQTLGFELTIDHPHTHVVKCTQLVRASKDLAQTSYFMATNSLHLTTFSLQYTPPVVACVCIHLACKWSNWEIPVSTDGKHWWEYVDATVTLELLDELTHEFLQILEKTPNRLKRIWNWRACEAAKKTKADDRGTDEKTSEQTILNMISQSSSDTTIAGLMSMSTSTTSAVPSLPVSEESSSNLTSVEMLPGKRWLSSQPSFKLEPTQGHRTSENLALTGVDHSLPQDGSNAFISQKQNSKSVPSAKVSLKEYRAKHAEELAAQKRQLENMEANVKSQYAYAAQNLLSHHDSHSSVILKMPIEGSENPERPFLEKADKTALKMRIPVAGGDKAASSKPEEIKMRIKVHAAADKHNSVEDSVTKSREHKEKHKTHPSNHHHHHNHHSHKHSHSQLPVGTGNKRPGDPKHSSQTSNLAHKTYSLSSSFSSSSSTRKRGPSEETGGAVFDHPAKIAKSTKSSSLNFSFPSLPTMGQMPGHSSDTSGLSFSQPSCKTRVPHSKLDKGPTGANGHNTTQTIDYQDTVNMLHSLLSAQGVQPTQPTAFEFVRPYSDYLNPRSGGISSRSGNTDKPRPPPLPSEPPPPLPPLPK
UniProt P14635: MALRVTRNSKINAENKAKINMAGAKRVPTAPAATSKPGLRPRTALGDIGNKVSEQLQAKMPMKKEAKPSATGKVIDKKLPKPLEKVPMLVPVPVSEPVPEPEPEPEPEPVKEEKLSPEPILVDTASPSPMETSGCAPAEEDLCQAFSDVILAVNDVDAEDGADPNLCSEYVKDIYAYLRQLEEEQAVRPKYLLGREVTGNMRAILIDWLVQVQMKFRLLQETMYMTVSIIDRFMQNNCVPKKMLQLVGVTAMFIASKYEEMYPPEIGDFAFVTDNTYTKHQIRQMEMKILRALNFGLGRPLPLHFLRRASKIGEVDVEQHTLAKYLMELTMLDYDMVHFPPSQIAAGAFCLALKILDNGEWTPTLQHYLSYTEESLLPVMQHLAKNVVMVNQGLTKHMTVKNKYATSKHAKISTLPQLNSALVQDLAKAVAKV
UniProt P16749: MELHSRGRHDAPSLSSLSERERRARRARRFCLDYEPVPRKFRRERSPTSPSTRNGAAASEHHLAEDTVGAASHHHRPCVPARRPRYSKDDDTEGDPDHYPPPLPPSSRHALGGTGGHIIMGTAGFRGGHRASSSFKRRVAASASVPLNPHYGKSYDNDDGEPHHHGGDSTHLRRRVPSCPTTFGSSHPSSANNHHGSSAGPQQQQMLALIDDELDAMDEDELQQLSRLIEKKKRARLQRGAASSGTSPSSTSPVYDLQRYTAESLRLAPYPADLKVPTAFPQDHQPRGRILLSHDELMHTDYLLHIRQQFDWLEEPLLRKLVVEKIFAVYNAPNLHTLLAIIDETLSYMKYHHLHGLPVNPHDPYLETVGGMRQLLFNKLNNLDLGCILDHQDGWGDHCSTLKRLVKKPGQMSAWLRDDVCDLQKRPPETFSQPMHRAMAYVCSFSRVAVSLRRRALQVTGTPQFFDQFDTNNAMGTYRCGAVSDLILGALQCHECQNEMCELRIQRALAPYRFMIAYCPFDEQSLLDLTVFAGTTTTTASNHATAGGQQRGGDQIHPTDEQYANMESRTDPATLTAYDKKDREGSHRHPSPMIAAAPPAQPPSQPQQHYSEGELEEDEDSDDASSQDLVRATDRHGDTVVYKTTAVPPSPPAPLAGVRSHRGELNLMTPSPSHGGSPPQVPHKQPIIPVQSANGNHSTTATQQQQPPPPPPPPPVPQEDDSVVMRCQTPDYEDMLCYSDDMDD

Common to all, as to assay: co-IP
Assay [1] deals with Flag-tagged pUL97 (full-length) (human cytomegalovirus (HCMV)) (UniProt P16788).
In assay [2] the target is endogenous cyclin T1 (293T cells) (human (endogenous in 293T)) (UniProt O60563).
Assay [3] concerns the target cyclin B1 (293T cells) (human (endogenous in 293T)) (UniProt P14635).
The target in assay [4] is cyclin T1 in HFFs (human (endogenous in HFF)) (UniProt O60563).
In assay [5] the target is pUL97 in HCMV-infected HFFs (human cytomegalovirus (HCMV) strain AD169-GFP) (UniProt P16788).

Results are given in words; binding and its absence hold for the method and conditions named. Binding seen in cells or lysates may run through a third protein. Some entries that bind do so weakly or less than the wild type.

As to “Flag-tagged pUL97 (full-length) (from UniProt P16788 1-707) (enzyme)”, the binding result in assay [1] is “binds”.
“pUL97(1–280)-Flag (from UniProt P16788 1-280) (domain or fragment)”: the binding entry in assay [2] is given as “binds”.
Still for that read-out and setting: for “pUL97(231–707)-Flag (from UniProt P16788 231-707) (domain or fragment)” the value was “binds”.
As to “pUL97(K355M)-Flag (from UniProt P16788 1-707) (enzyme)”, the binding entry in assay [3] is “no binding”.
The same measure, in the same setting: to “pUL97(157–707)-Flag (from UniProt P16788 157-707) (domain or fragment)” belongs “binds”.
Regarding “pUL97 in HCMV-infected HFFs (from UniProt P16788 1-707) (enzyme)”, the binding result in assay [4] is given as “binds”.
Take “pUL97(MX4)-Flag (from UniProt P16788 1-707) (enzyme)”: the binding entry in assay [3] is “binds”.
Consider “pUL97(74–707)-Flag (from UniProt P16788 74-707) (domain or fragment)”, for which the binding result in assay [3] is reported as “binds”.
In the case of “pUL97(1–230)-Flag (from UniProt P16788 1-230) (domain or fragment)”, in assay [2], the binding result was “no binding”.
For “viral mRNA export factor pUL69 in HCMV-infected HFFs (from UniProt P16749 1-744)”, in assay [5], the binding result is recorded as “binds”.
